Several values for one entry are separate records, joined by “and”; a condition that tells them apart may be missing. Equal entries are not always repeated. The source gives many values for each of these; only a part stands here.
Assays:
[1] = xn = mol fraction of the nth substance listed

OCCOCCOCCO + CS(C)=O
[1], 318.15 K, 100 kPa
Details	viscosity [mPa·s]
x1 = 0.1822	2.82
x1 = 0.2192	3.19
x1 = 0.2575	3.59
x1 = 0.3003	4.08
x1 = 0.3422	4.58
x1 = 0.3888	5.16
x1 = 0.4385	5.84
x1 = 0.4915	6.58
x1 = 0.5521	7.49
x1 = 0.6114	8.41
x1 = 0.6754	9.46
x1 = 0.7463	10.7
x1 = 0.8233	12.1
x1 = 0.9083	13.6

OCCOCCOCCO + O
[1], 308.15 K, 101.33 kPa
Details	viscosity [mPa·s]
x1 = 0.5032	17.45
x1 = 0.5991	19.29
x1 = 0.6914	20.45
x1 = 0.7941	21.78

O=[N+]([O-])[O-].[Na+] + O
viscosity [mPa·s], [1]
Details	298.15 K	323.15 K
100 kPa, x1 = 0.00475	0.9042	0.5613
100 kPa, x1 = 0.00898	0.9164	0.5738
100 kPa, x1 = 0.0118	0.9256	0.5817
100 kPa, x1 = 0.02481	0.9737	0.6151
100 kPa, x1 = 0.03655	–	0.6616
100 kPa, x1 = 0.0509	1.139	0.7283
100 kPa, x1 = 0.08286	1.43	0.8995
100 kPa, x1 = 0.1015	1.629	1.022
101.33 kPa, x1 = 0.000905	–	0.5655
101.33 kPa, x1 = 0.002718	–	0.5705
101.33 kPa, x1 = 0.00453	–	0.5784
101.33 kPa, x1 = 0.006344	–	0.5858
101.33 kPa, x1 = 0.008159	–	0.5986

OCCOCCOCCO + CN(C)C=O
[1], 318.15 K, 101 kPa
Details	viscosity [mPa·s]
x1 = 0.1726	1.38
x1 = 0.2077	1.59
x1 = 0.245	1.85
x1 = 0.2848	2.14
x1 = 0.3274	2.5
x1 = 0.373	2.92
x1 = 0.422	3.44
x1 = 0.4748	4.11
x1 = 0.5318	4.91
x1 = 0.5935	5.85
x1 = 0.6607	7.08
x1 = 0.7339	8.59
x1 = 0.8141	10.5
x1 = 0.9024	13

CN(C)C=O
viscosity
Details	293.15 K	298 K	298.15 K	303.15 K	308.15 K	313.15 K	318.15 K	323.15 K
100 kPa	0.867 mPa·s	–	0.813 mPa·s	0.764 mPa·s	0.717 mPa·s	–	0.663 mPa·s	0.63 mPa·s
101 kPa	0.863 mPa·s and 0.854 mPa·s	–	0.802 mPa·s and 0.808 mPa·s	0.733 mPa·s and 0.7566 mPa·s	0.7217 mPa·s and 0.7171 mPa·s	0.6831 mPa·s and 0.64 mPa·s	0.646 mPa·s and 0.597 mPa·s and 0.6423 mPa·s	0.6128 mPa·s and 0.6093 mPa·s
101.3 kPa	–	0.796 mPa·s	0.8024 mPa·s and 0.92 mPa·s	–	–	–	–	–
101.33 kPa	–	–	0.796 mPa·s and 0.802 mPa·s and 0.802 mPa·s	0.7675 mPa·s and 0.737 mPa·s and 0.7485 mPa·s	0.722 mPa·s	0.671 mPa·s and 0.6683 mPa·s	0.635 mPa·s and 0.633 mPa·s	0.6004 mPa·s
